# ± gives the standard deviation of the averaged measurements. The list shows a part of the results.
# Tested on: PfAP2-G AP2 domain (GST-tagged)
# Assay: gcPBM binding intensity (ln(normalized median fluorescence intensity)); higher = stronger DNA binding
# Outline: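 After 1 h on an Agilent 4 × 180k array of primer-extended double-stranded 36-bp intergenic genomic probes and negative controls, bound GST-tagged P. falciparum DNA-binding domains were detected with Alexa488 anti-GST antibody and scanned at 488 nm. The domains had been expressed in E. coli, and binding took place in 1× PBS with 1% milk, 0.2 mg/ml BSA, 0.5% salmon testes DNA and 0.03% Triton X-100. Binding intensity is the highest Masliner-normalised natural-log median intensity across replicate spots of either probe orientation.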
row,Sequence,gcPBM binding intensity (ln)
1,TTAATAAAAGCCCATGCACACCTTAGAAAGTTTTAT [CACACA_site8003],10.1 ± 0.18
2,TTAGGAAAACAAAAATGTACGCATATATATTATTGA [XGTACX_site8288],11.5 ± 1
3,TTAAAAATAATATATTGTACACATACTTATTTTAAT [XGTACX_site1348],11.4 ± 0.88
4,CGTTATATATGTATTACATGCAATATATGTACGTAA [TGCATGCA_site274],11.3 ± 1
5,TAAATAATATCCCTTTGTACGTATTTTTTTTTATTA [XGTACX_site7303],11.5 ± 0.78
6,GAAATAAGTTAAAATAGTACGTAGTGTTCCTTAAGT [XGTACX_site6557],11 ± 0.46
7,GATGAATAAATCAAAGCACACATACACCCACATATA [CACACA_site7986],10.4 ± 0.38
8,TTCGTTTAAATCAAGTGTACATATTATATATAATAT [XGTACX_site7599],11.3 ± 0.87
9,ATTTTTTTTTTTTTTTTTTGGTTTTCTTTAGGAGTT [CACACA_negctrl_site1258],9.93 ± 0.29
10,GTGCATATACAAATATGTACTTAAACGTTTTTTTTT [XGTACX_site7362],11 ± 0.72
11,TTTTTCTTTTGATGTTGTACATATATATCATATAAT [XGTACX_site1189],11.3 ± 0.84
12,AAGACTTCTCCATATACACACACCAACAAATATAAA [CACACA_site2779],10.2 ± 0.23
13,GTTTATTCATCATACGGTACACATAAATAATATATA [XGTACX_site6931],11.1 ± 0.79
14,TTATTATTTCTTAGTAGTACTATATAATTTTTTTTT [XGTACX_site1847],11.2 ± 0.59
15,ATAGTATCTGGTAGCTGTACGAGTCGTAGAGAGTAG [XGTACX_site2546],11.3 ± 0.87
16,TTTCCTCATTTTATCATACACACTTATTTATATGTG [CACACA_site900],10.11 ± 0.099
17,GCCAAAATATAATTTACACACTTATTAAATAATTAT [CACACA_site236],9.85 ± 0.014
18,AGAATAATACAAAAATGTACATTAATAAAAAGATAG [XGTACX_site780],11.2 ± 0.72
19,ATATATCTGTATGGCACACACGGATAAATATATATA [CACACA_site4668],10.1 ± 0.2

row,Sequence,gcPBM binding intensity (ln)
1,TATATTTGTACATGATATTTTTTTTTTCTTTTAAAA [CACACA_negctrl_site754],11.1 ± 0.62
2,TGTATTTAGAAACATACACACATATTAAGTTTACAT [CACACA_site5689],9.955 ± 0.021
3,GGAAAATTATCAATAGCATGCAAAATGTGAATATTA [TGCATGCA_site901],9.66 ± 0.22
4,AAAACATTGTTGAACTGTTTTATTTATAAATATAAG [XGTACX_negctrl_site393],9.94 ± 0.16
5,ATATATATACTGTGTACACACATATGTATTTATATA [CACACA_site4600],11.6 ± 0.78
6,ATTGAATATGGATATGTGCACATATGTATATAAGTA,10.5 ± 0.2
7,AATTATATGAAATAAACACACATATGTAATATTACA [CACACA_site1928],9.86 ± 0.13
8,AGAAGGTAAATAATTTACCCATATATATAAATATAT [GTGCAC_negctrl_site631],9.895 ± 0.078
9,TAATAACTACAAAAAAAAAAGAAAAATAGAAAAAGG [CACACA_negctrl_site1102],9.86 ± 0.13
10,TCGTGTTAAACTTTTACACACAAACTTGCAATAATT [CACACA_site7745],10.045 ± 0.007
11,TGCTTTATTATTTATTGTACATGTAAAATGAGAGAG [XGTACX_site2288],11.2 ± 0.88
12,TTTGTTTAAATTAAATGTACATAAAGAATAATATAT [XGTACX_site5093],11.4 ± 0.76
13,AAGATATCTAAGGAAATTAAACTACCAAAATATATA [TGCATGCA_negctrl_site338],9.8 ± 0.3
14,TGCATAAAAGTAAAAACATGCATGCCGTGGTATCTT [TGCATGCA_site664],9.875 ± 0.049
15,TGTATAATATATATATGTACTTATGTATAATATTAT [XGTACX_site4328],11.2 ± 0.76
16,GACATATAAATATACACACATACGTAAGTATATTAA [CACACA_site1790],9.98 ± 0.12
17,TTTTTATGGATATTTATATTATATTATGATTAAAAA [TGCATGCA_negctrl_site204],9.725 ± 0.049
18,AATAATACAAAAGTTCAACAAAAAAAAAAAAAAAAT [CACACA_negctrl_site952],10 ± 0.31
19,CTTTATAATATTTGTTGTACACAAATATAACATATT [XGTACX_site709],11.6 ± 1.1

row,Sequence,gcPBM binding intensity (ln)
1,AAATATATATATATATATATATATGTGTGTGTATAT [GTGCAC_negctrl_site1],9.735 ± 0.092
2,GTACATAATTATTATGCACACATATTTTTATGTATT [CACACA_site8132],10.8 ± 0.36
3,AATATATTTATAAGCACACACTAATAAACACAGACA [CACACA_site4377],10.3 ± 0.26
4,TAATAATAATTATATACACACATGTATATTATATTT [CACACA_site1501],9.81 ± 0.057
5,ACTCCTATATAAATGAACCATATTCATAATATATAT [CACACA_negctrl_site1636],10 ± 0.18
6,ATTTAAATATATTATTGTACATATACCTAATAAGAA [XGTACX_site6655],11.1 ± 0.73
7,AAGAGAAAAACATACACACACAACAAAATATGTATA [CACACA_site2719],9.95 ± 0.085
8,AAATGAAAGAATTAAAGTACATTTATATAATTTTAA [XGTACX_site3540],11.1 ± 0.71
9,ATTTTTTTTATTTTTTATATAATTTTTTTATATTAT [CACACA_negctrl_site1521],9.47 ± 0.26
10,TGTATTTATAAACATGCACACGTGGTTGTATTTATA [CACACA_site5762],10.175 ± 0.007
11,ATTTGTTTACCTAAAAGTACAAATTTTTTATGTATA [XGTACX_site7689],11 ± 0.66
12,ATATCTTATGTTATCACACACACACGCACAAAACAG [CACACA_site6800],10.8 ± 0.59
13,TATCCCTTAGAATACACACCCATATGAGTGTGAACT [CACACA_site7398],10.05 ± 0.057
14,TGTTTTGTTTTTTGGGGTACATGTTTTGTATTATAT [XGTACX_site7997],11.6 ± 0.78
15,AAAAAAAAAAAAAACATACACACAAATATATACATA [CACACA_site4010],9.97 ± 0.14
16,ATGTATTAAAAAAATTGTACTATAAAATGTAACCGC [XGTACX_site8083],11.1 ± 0.57
17,AAGGCAAGCACTTAAACATGCATATAATAATATCAT [TGCATGCA_site698],9.77 ± 0.16
18,ATAATATATATATATGCATGTACATATTTATCTTTA [TGCATGCA_site32],11.1 ± 0.75

# Source: the supplement of paper PMC11417369
